In all, about 410,000 compounds went through this assay and about 530 (0.13%) were called active. This list was built around the results that the source calls inconclusive (neither active nor inactive); the mix of calls is not that of the screen. Calls follow the shape of the dose curve; as a rule, active = well fitted inhibition curve with a large enough effect; inconclusive = small, poorly fitted or top-dose-only effect, or another doubt; inactive = no such curve, though single readings can be large or run the other way. Potencies of inconclusive entries are doubtful fits and often do not repeat.
Test: qHTS of GLP-1 Receptor Inverse Agonists: Cytotox Screen
Conditions: HEK293 cAMP-luciferase reporter cells, luminescence, 24 h; activity change, negative = inhibition: at 38.3 µM (top of the series)
How it was run: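 To flag toxic compounds, the library was rerun on cells for 24 hr at 37 deg C and 5% CO2. Viability-linked luminescence was captured 12 min after adding luciferase detection reagent.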
With `C=CCn1cc(CN2CCC(C(=O)Nc3cccc(-c4cccc(Cl)c4)c3)CC2)c(C)n1` the Potency was inconclusive: 15.8 µM [inhibitor, partial curve, poor fit]. For `C=C1CCc2c([nH]c3ccc(OCC(C)C)cc23)C1=O`, the activity change, negative = inhibition was inconclusive: -83.8% [inhibitor]. For `COc1ccc(C2=Nn3c([n+](C)c4ccccc43)SC2)cc1`, the “activity change, negative = inhibition” value was inactive: -16.1%. With `CCOc1cc2c(cc1OCC)C(c1ccc(O)c(OC)c1)NCC2` (stereo not given) the Potency was inconclusive: 8.91 µM [inhibitor, partial curve, poor fit]. With `Clc1ccc(/C=N/NC2=Nc3cccc4cccc2c34)cc1` the Potency was inconclusive: 10 µM [inhibitor, partial curve, poor fit]. In the case of `Cc1ccc(S(=O)(=O)CCc2nnc(NC(=O)CCl)s2)cc1C`, the “activity change, negative = inhibition” value is reported as inactive: -2.79%. With `CCOC(=O)N1CCN(C(=O)c2ccc3c(c2)N(Cc2ccc(C)cc2)CCS3)CC1` the Potency was inconclusive: 10 µM [inhibitor, single point]. In the case of `Cn1c(=O)c2cc(NC(=S)NCc3ccccc3F)ccc2n1Cc1cccc(C(F)(F)F)c1`, the Potency is reported as inconclusive: 22.4 µM [inhibitor, single point]. In the case of `C=CC[C@H](CC(=O)N(CCO)Cc1ccccc1)C(=O)N[C@H](COC(=O)[C@@H](CC=C)CC(=O)OC(C)(C)C)Cc1c[nH]c2ccccc12`, the Potency is reported as inconclusive: 1.78 µM [inhibitor, partial curve, poor fit]. With `O=C(CSc1ncnc2c1nnn2Cc1ccc(F)cc1)NCC1CCCO1` (stereo not given) the Potency was inconclusive: 7.94 µM [inhibitor, partial curve, poor fit]. For `O=C(NCc1cccs1)C1CCN(c2ccc(S(=O)(=O)N3CCOCC3)cc2Cl)CC1`, the Potency was inconclusive: 1 µM [inhibitor, full curve, poor fit]. In the case of `Cc1ccc(-n2nc(C)c3c(C)c(CCC(=O)Nc4ccc(CN5CCCC5)cc4)c(C)nc32)cc1`, the Potency is reported as inconclusive: 28.2 µM [inhibitor, single point]. With `CC(C)(C)NC(=O)CSc1nc(O)cc(=O)[nH]1` the “activity change, negative = inhibition” value was inactive: -6.95%. For `FC(F)(F)c1nc2ccccc2nc1N/N=C\c1ccccc1`, the Potency was active: 8.91 µM. With `CCN(CC)S(=O)(=O)c1ccc(C(=O)NC(=S)N(CCO)Cc2ccccc2)cc1` the Potency was inconclusive: 28.2 µM [inhibitor, single point]. For `CCN(CC)CCN(C(=O)c1ccc2c(c1)CCCC2)c1nc2ccc(C)cc2s1`, the Potency was inconclusive: 12.6 µM [inhibitor, single point]. In the case of `Cc1ccc(C(=O)CC(C(=O)O)n2cncn2)cc1` (stereo not given), the “activity change, negative = inhibition” value is reported as inactive: 12.2%. In the case of `CCn1cc(C(=O)NCCc2ccc(Cl)cc2)c(=O)c2cc(S(=O)(=O)N3CCCCCC3)ccc21`, the “activity change, negative = inhibition” value is reported as inactive: 2.87%. For `COc1cc(C(=O)NCc2cccnc2)ccc1OCC(=O)Nc1cccc(C(F)(F)F)c1`, the Potency was inconclusive: 14.1 µM [inhibitor, single point]. With `Cc1ccccc1NC1=NC(=S)N(c2ccccc2)C12CCCCC2` the Potency was inconclusive: 28.2 µM [inhibitor, single point]. In the case of `Cc1ccc(Cl)c2c1=NC(=O)C=2c1[nH]c(=S)[nH]c1O`, the Potency is reported as inconclusive: 12.6 µM [inhibitor, single point]. For `COc1ccc(/C=C2\SC(=S)N(CCCC(=O)N3CCCCC3CCO)C2=O)cc1` (stereo not given), the Potency was inconclusive: 22.4 µM [inhibitor, single point]. With `Cc1sc2nc(CN3CCOCC3)nc(NCCc3ccccc3)c2c1C` the Potency was inconclusive: 12.6 µM [inhibitor, single point]. For `CCOC(=O)N1CCN(C(=S)NC(=O)/C=C/c2ccc(C)cc2)CC1`, the Potency was inconclusive: 11.2 µM [inhibitor, partial curve, poor fit]. In the case of `Cc1nn2c(=O)cc(COc3ccc(/C=C(\C#N)C(=O)Nc4ccccc4)cc3Cl)nc2s1`, the Potency is reported as inconclusive: 10 µM [inhibitor, partial curve]. In the case of `CCN1CCCC1CNc1ncnc2c1[nH]c1ccc(Cl)cc12` (stereo not given), the Potency is reported as inconclusive: 28.2 µM [inhibitor, single point]. For `O=C(O)c1ccc(NCc2ccc3c(c2)OCO3)cc1`, the “activity change, negative = inhibition” value was inactive: -16.9%. With `Cc1ccc(Cn2nnc3c(=O)n(CC(=O)NCc4ccc5c(c4)OCO5)cnc32)cc1` the Potency was inconclusive: 12.6 µM [inhibitor, single point]. With `CCOc1cccc(-c2csc(C3COc4ccccc4O3)n2)c1` (stereo not given) the “activity change, negative = inhibition” value was inactive: 9.89%. In the case of `Cc1ccc(CNc2ncnc3onc(C)c23)cc1`, the “activity change, negative = inhibition” value is reported as inactive: 9.69%. For `COc1ccc(-c2onc(C)c2C)cc1S(=O)(=O)Nc1cc(Cl)ccc1C`, the “activity change, negative = inhibition” value was inactive: -17.4%. In the case of `Cc1ccc(NC(=S)N(CCN(C)C)C(C)c2ccco2)cc1Cl` (stereo not given), the Potency is reported as inconclusive: 15.8 µM [inhibitor, partial curve, poor fit]. For `CCOc1ccc(/C=N/NS(=O)(=O)c2ccc(C)cc2)cc1OC`, the “activity change, negative = inhibition” value was inactive: 0.392%. With `CCCCCCn1c(SCC(=O)Nc2cc(C)on2)nc2ccccc2c1=O` the “activity change, negative = inhibition” value was inactive: -3.53%. In the case of `CCN(CC)c1ccc(NC(=O)C2CC3CCC2C3)cc1` (stereo not given), the “activity change, negative = inhibition” value is reported as inactive: -14.9%. For `O=C(CNC(=O)Cn1ccc2ccccc2c1=O)NCCCN1CCN(c2cccc(Cl)c2)CC1`, the “activity change, negative = inhibition” value was inactive: 11.4%. In the case of `Cc1csc(NC(=O)c2cc[n+]([O-])cc2)n1`, the activity change, negative = inhibition is reported as inconclusive: -30.1% [inhibitor]. For `CN(C)CC1CCCCC1C1(O)c2ccccc2CSc2sccc21` (stereo not given), the Potency was inconclusive: 28.2 µM [inhibitor, single point]. In the case of `C=CCC[C@H](Cc1ccc(F)cc1)C(=O)OC[C@@H](Cc1c[nH]c2ccccc12)NC(=O)[C@H](CC=C)CC(=O)N(CCO)Cc1ccccc1`, the Potency is reported as inconclusive: 28.2 µM [inhibitor, single point]. In the case of `COc1ccc(CN2C(=O)CN(S(C)(=O)=O)CC2(C)C(=O)Nc2c(C)cccc2C)cc1` (stereo not given), the “activity change, negative = inhibition” value is reported as inactive: -0.366%. In the case of `CC(C)CC1CCCCC1OC(=O)C[N+]1(C)CCCCC1` (stereo not given), the “activity change, negative = inhibition” value is reported as inactive: -11%. In the case of `O=C(CSc1ncccn1)N1CCCCCC1`, the “activity change, negative = inhibition” value is reported as inactive: -6.03%. For `Cc1cccc(NC(=S)NC(=O)c2ccc(-c3ccccc3)cc2)n1`, the Potency was inconclusive: 6.31 µM [inhibitor, partial curve, poor fit]. In the case of `C=CCOC(=O)C1=C(C)N(C)C(=O)NC1c1cc2c(cc1Br)OCO2` (stereo not given), the “activity change, negative = inhibition” value is reported as inactive: -22.3%. With `Oc1cccc(/C=C/c2ccc3cccc(O)c3n2)c1` the Potency was inconclusive: 28.2 µM [inhibitor, single point].
% is scaled to controls: 0 for no effect and ±100 for the full control effect; potency is read from the fitted curve at half-maximal effect.
